# Hit rate of the full screen: of about 360,000 compounds, about 16,000 (4.4%) were called active. Inconclusive means that the source gave no clear call. Such entries were picked first, then a sample of the others. The call rests on the fitted dose curve; in most records, active means well fitted inhibition curve with a large enough effect; inconclusive means small, poorly fitted or top-dose-only effect; inactive means no such curve, though single readings can be large or run the other way. Where the call is inconclusive, the potency comes from a doubtful curve fit.
# Biological target: Bromodomain adjacent to zinc finger domain protein 2B (Homo sapiens) (UniProt Q9UIF8)
# Assay: qHTS Assay for Inhibitors of BAZ2B; further: nearly all actives have a fitted effect of over 60% in size
# Conditions: AlphaScreen BAZ2B-H3K14Ac peptide displacement; activity change, negative = inhibition: at 114 µM (top of the series)
# Summary of the method: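 Protein-peptide AlphaScreen: BAZ2B 50 nM, b-H3K14Ac 50 nM, 1x PBS pH 7.4 + 0.01% Tween-20. Preincubation 30 min RT; cpd 30 min RT (top 110 uM); beads 20 min RT, light-protected.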
# On the % scale 0 is the no-effect control and ±100 the full control effect; potency means the concentration at half of the fitted maximal effect; tags describe the fitted curve by direction and shape.
# Sequence of UniProt Q9UIF8 (Q9UIF8 whole entry, looked up, the tested form may be a part): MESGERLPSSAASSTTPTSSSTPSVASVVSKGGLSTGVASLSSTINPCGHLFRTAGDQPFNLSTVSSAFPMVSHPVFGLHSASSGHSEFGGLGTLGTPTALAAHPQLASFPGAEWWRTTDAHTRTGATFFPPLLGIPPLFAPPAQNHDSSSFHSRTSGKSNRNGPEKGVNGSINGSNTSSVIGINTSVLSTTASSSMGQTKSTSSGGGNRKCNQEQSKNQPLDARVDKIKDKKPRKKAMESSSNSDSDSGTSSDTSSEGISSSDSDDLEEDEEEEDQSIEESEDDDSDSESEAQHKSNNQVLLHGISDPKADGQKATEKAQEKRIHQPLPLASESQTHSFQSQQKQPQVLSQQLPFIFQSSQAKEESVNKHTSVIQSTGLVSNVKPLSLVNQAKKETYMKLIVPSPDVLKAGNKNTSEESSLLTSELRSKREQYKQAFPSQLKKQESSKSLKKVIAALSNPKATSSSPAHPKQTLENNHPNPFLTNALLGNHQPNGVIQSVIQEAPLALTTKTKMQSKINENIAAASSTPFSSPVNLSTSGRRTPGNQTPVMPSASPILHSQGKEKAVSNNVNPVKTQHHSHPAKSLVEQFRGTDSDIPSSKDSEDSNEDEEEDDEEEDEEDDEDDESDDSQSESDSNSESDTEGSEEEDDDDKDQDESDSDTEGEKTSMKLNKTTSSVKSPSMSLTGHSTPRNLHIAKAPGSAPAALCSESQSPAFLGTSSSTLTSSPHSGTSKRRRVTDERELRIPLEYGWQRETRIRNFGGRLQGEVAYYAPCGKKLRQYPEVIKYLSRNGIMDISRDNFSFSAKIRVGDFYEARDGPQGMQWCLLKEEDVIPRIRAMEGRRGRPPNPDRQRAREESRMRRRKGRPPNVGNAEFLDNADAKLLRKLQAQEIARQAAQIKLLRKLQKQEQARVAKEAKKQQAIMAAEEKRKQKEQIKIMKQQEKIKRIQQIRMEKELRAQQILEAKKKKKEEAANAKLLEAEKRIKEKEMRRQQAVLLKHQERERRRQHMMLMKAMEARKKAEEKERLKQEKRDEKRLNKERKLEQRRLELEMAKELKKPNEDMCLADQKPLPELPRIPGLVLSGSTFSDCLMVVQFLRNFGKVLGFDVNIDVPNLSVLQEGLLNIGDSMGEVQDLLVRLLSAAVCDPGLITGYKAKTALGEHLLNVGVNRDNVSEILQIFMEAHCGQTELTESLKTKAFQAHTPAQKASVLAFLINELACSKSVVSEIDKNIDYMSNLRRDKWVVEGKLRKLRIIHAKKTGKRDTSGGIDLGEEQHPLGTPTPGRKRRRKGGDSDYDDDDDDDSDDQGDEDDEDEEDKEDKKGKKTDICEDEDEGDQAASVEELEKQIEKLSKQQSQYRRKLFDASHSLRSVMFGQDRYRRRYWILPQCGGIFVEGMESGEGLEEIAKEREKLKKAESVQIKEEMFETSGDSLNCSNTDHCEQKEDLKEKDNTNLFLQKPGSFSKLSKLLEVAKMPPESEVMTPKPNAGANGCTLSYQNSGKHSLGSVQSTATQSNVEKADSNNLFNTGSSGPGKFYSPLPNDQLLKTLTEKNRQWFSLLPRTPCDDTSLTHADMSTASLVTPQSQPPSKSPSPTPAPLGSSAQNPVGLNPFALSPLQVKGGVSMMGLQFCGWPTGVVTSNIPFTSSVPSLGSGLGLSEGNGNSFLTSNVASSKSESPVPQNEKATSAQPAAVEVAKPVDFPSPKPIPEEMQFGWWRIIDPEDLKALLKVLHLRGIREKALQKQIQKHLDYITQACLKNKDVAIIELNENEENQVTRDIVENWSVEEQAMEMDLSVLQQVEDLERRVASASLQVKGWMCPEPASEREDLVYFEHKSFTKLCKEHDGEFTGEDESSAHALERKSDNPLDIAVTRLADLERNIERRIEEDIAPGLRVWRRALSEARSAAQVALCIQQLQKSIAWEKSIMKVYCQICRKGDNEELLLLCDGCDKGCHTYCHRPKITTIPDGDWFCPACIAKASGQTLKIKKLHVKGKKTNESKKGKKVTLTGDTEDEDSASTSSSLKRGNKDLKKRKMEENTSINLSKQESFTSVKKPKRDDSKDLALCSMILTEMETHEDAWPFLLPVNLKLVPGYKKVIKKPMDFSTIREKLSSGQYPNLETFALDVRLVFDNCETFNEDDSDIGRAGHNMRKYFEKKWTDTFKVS
Structure (SMILES),Potency,"activity change, negative = inhibition"
Clc1cc(Br)ccc1OCCCn1ccnc1,active: 50.1 µM,
CC(C)(C)N(Cc1ccccc1)C(=O)c1ccc(Br)o1,"inconclusive: 28.2 µM [inhibitor, full curve]",
Cc1cc(NS(=O)(=O)c2ccc(Nc3nc(-c4ccc(C)c(C)c4)cs3)cc2)no1,"inconclusive: 56.2 µM [inhibitor, partial curve]",
COc1ccccc1/C=N/Nc1cc(C)nc(N2CCOCC2)n1,"inconclusive: 79.4 µM [inhibitor, single point]",
Cc1c(C(=O)NCC2COc3ccccc3O2)oc2ccc(S(=O)(=O)N3CCOCC3)cc12 (centres undefined),,inactive: 3.91%
CC(C)(C)C(=O)CSc1nc2ccsc2c(=O)n1Cc1ccccc1Cl,,inactive: -19.4%
CCc1cc(=O)oc2c(C)c(OC(C)C(=O)NC3CC(C)(C)NC(C)(C)C3)ccc12 (centres undefined),,inactive: -4.19% [at 57.1 µM]
Cc1nc(N)sc1-c1csc(NCc2ccccc2)n1,active: 31.6 µM,
CCc1ccc(NC(=O)CSc2nc(C)c(C(=O)Nc3ccccc3)c(-c3ccc(OC)c(OC)c3)c2C#N)cc1,,inactive: -10.2%
Nc1ccc(N2CCN(C(=O)c3cccs3)CC2)cc1,"inconclusive: 56.2 µM [inhibitor, partial curve]",
COc1ccc(NC(=O)c2sc3nc(C)nc(N4CCN(c5ccccn5)CC4)c3c2C)cc1Cl,"inconclusive: 70.8 µM [inhibitor, single point]",
COc1cc(NS(=O)(=O)c2ccc(NC(=O)c3ccc(S(=O)(=O)N4CCCC4)cc3)cc2)ncn1,,inactive: 4.05%
CC(C)(C)c1cc(CCC(=O)NNC(=O)c2ccco2)cc(C(C)(C)C)c1O,"inconclusive: 89.1 µM [inhibitor, single point]",
Cc1ccccc1C(=O)N1CCN(c2ccc(NC(=S)NC(=O)c3cccs3)cc2)CC1,"inconclusive: 3.16 µM [inhibitor, full curve]",
Cc1ccc(-n2nc(C(=O)N3CCN(c4ccccc4F)CC3)c(=O)n(C)c2=O)cc1,,inactive: -15.2%
CC[n+]1c(/C=C2\Sc3ccccc3N2C)ccc2cccc(C)c21,active: 44.7 µM,
CNc1ccccc1C(C)(C)c1cc(C)[nH]n1,,inactive: -18.3%
Cc1ccc(C(C(=O)NC(C)(C)C)N(Cc2ccco2)C(=O)CCC(=O)Nc2ccccn2)cc1 (centres undefined),"inconclusive: 79.4 µM [inhibitor, single point]",
O=[N+]([O-])c1ccc(-c2nc(C(Cl)Cl)c3ccccc3n2)cc1,"inconclusive: 79.4 µM [inhibitor, single point]",
CCOC(=O)c1c(-c2ccc(C)o2)csc1NC(=S)NC(=O)N(C)C,active: 44.7 µM,
CCOC(=O)C(C)(C)N(Cc1ccc(Cl)cc1)S(=O)(=O)c1ccc(Cl)c([N+](=O)[O-])c1,"inconclusive: 35.5 µM [inhibitor, partial curve]",
COc1ccc(-c2cn3cccnc3n2)cc1NC(=O)c1cc(OC)c(OC)c(OC)c1,"inconclusive: 89.1 µM [inhibitor, single point]",
O=C(c1cccc(F)c1)N1CCN(c2ccc([N+](=O)[O-])c(N3CCCCC3)c2)CC1,"inconclusive: 35.5 µM [inhibitor, full curve]",
CCCn1c(CCC(=O)O)ccc1-c1cccs1,"inconclusive: 79.4 µM [inhibitor, single point]",
COc1cc2c(cc1OC)C1O[C@](c3ccsc3)(C2)Oc2cc(C)n(Cc3ccccc3)c(=O)c21,active: 3.98 µM,

Structure (SMILES),Potency,"activity change, negative = inhibition"
CSC(=S)N/N=C(\C)c1ccc(Br)cc1,"inconclusive: 12.6 µM [inhibitor, full curve]",
COc1ccc(N2CCN(S(=O)(=O)c3ccc(-c4coc(C)n4)cc3)CC2)cc1,"inconclusive: 28.2 µM [inhibitor, partial curve]",
C/C(CC(O)c1ccc2ccccc2n1)=N/O (centres undefined),"inconclusive: 12.6 µM [inhibitor, single point]",
COc1ccc2c(c1OC)C(=O)N1C2SC[C@H]1C(=O)NC1CC1 (some centres undefined),"inconclusive: 89.1 µM [inhibitor, single point]",
CC(=O)NC(c1cccs1)c1cc([N+](=O)[O-])c2cccnc2c1O (centres undefined),active: 3.98 µM,
COc1cc(OC)c(OC)cc1CNCc1ccco1,"inconclusive: 89.1 µM [inhibitor, single point]",
Cc1ccc(N2C(=O)CSCC2=O)cc1,,inactive: -2.76%
C/C(=N\N=c1/scc(C)n1Cc1ccco1)c1cccc([N+](=O)[O-])c1,active: 10 µM,
Cc1cc(C)c2nc(N3C(=O)C(O)=C(C(=O)c4ccco4)C3c3ccco3)sc2c1 (centres undefined),active: 44.7 µM,
CCOc1ccc(NC(=O)COc2ccc(-n3cnnn3)cc2)cc1,,inactive: -0.769%
Cc1ccc(NS(=O)(=O)c2ccc(NC(=O)CN(c3cc([N+](=O)[O-])ccc3C)S(C)(=O)=O)cc2)c(C)c1,"inconclusive: 79.4 µM [inhibitor, single point]",
COCC(=O)N(C)c1nnc(-c2cnc(C)cn2)s1,,inactive: -6%
Nc1c(/C=C2/C=CC(=O)C(O)=C2)c(=O)nc2sc(CC(=O)N3CCCCC3)nn12,active: 10 µM,
O=C(/C=C/c1cccnc1)c1ccc(O)cc1,,inactive: -13%
CN(C)CCNC(=O)c1onc(CSc2nc3ccccc3[nH]2)c1C(=O)NCCN(C)C,"inconclusive: 89.1 µM [inhibitor, single point]",
CCCC(C(=O)Nc1ccc2c(C)cc(=O)oc2c1)c1ccccc1 (centres undefined),active: 56.2 µM,
COc1cccc(OC)c1NC(=O)C1CCCN1C(=O)NCc1ccccc1 (centres undefined),,inactive: 3.36%
CC(C)CNC(=O)CC(=O)N/N=C/c1ccc(Br)cc1,"inconclusive: 28.2 µM [inhibitor, single point]",
O=C(CSc1nc2ccc(Cl)cc2[nH]1)NC1CCCC1,"inconclusive: 79.4 µM [inhibitor, partial curve]",
Cc1cc(C)c(N=Cc2c(O)n(-c3nccs3)c(=O)c3ccccc23)c(C)c1,"inconclusive: 31.6 µM [inhibitor, partial curve]",
COc1ccc2c(c1)c(C(=O)N/N=C/c1cccc(Br)c1)c(C)n2C,"inconclusive: 31.6 µM [inhibitor, full curve, poor fit]",
CCc1ccccc1NC(=O)CCS(=O)(=O)c1ccc(OC)cc1,"inconclusive: 79.4 µM [inhibitor, single point]",
Fc1cccc(CCN2CCNC[C@H]2Cc2cccc3ccccc23)c1,"inconclusive: 89.1 µM [inhibitor, single point]",
CN(C)CCOc1cccc(Br)c1,active: 44.7 µM,
CN(C)S(=O)(=O)N1CCN(c2ccc([N+](=O)[O-])c(NC3CC3)c2)CC1,"inconclusive: 70.8 µM [inhibitor, partial curve]",

Structure (SMILES),Potency,"activity change, negative = inhibition"
CCOC(=O)c1[nH]c(C)c(C(=O)N2CCN(c3cccc(Cl)c3)CC2)c1C,active: 50.1 µM,
Cc1ccnc(NC(=O)C2CCN(S(=O)(=O)c3ccc4ccccc4c3)CC2)c1,"inconclusive: 70.8 µM [inhibitor, partial curve, poor fit]",
O=C(N/N=C/c1c[nH]c2ccccc12)c1ccn(Cc2ccc(Cl)cc2)n1,"inconclusive: 70.8 µM [inhibitor, single point]",
Cc1cc(C)nc(Nc2ncc(O)n2-c2ccccc2)n1,,inactive: -36.9%
CS(=O)(=O)c1ccc(Cl)c(C(=O)O)c1,"inconclusive: 89.1 µM [inhibitor, single point]",
COc1ccc(NC(=O)Nc2nnc(N3CCCC3)s2)cc1,,inactive: -3.01%
CC1(C)OC(=O)C(=Cc2ccc(-c3ccc(Cl)c(C(=O)O)c3)o2)C(=O)O1,active: 79.4 µM,
O=C(CCS(=O)(=O)c1ccc(Br)cc1)NCCc1ccc(Cl)cc1,active: 50.1 µM,
Cn1c(-c2cnn(-c3ccccc3)c2-n2cccc2)n[nH]c1=S,,inactive: -37%
Cc1nn(CCc2nn[nH]n2)c2nc(-c3ccccc3)cc(C(F)(F)F)c12,,inactive: 14.2%
CCC(CC)NCC(O)COc1ccc(Br)cc1 (centres undefined),active: 28.2 µM,
CN(C)CCCN(C(=O)c1ccc2c(c1)CCCC2)c1nc2ccc(Cl)cc2s1,"inconclusive: 39.8 µM [inhibitor, partial curve]",
CN(C)c1ccc(NC(=O)Cn2c(SCc3ccc(F)cc3)nc3ccncc32)cc1,"inconclusive: 7.94 µM [inhibitor, full curve]",
COc1ccc(CCNC(=O)CSc2cn(CCNC(=O)c3c(F)cccc3F)c3ccccc23)cc1OC,"inconclusive: 89.1 µM [inhibitor, single point]",
CCOC(=O)Cn1nc(-c2ccccc2)c2cnc3ccc(C)cc3c21,,inactive: -28.5%
NC(=O)CC(NC(=O)Cc1ccc(Cl)cc1)c1ccc(NC2CCN(Cc3ccccc3)CC2)c([N+](=O)[O-])c1 (centres undefined),"inconclusive: 89.1 µM [inhibitor, single point]",
O=C(COc1c(Br)cc(Br)c2cccnc12)N1CCCCC1,"inconclusive: 79.4 µM [inhibitor, single point]",
O=C(CC(c1cccs1)N1Cc2ccccc2C1=O)Nc1ccc(F)cc1 (centres undefined),,inactive: -3.75%
CCOC(=O)[C@H]1[C@H]2COc3ccc(Cl)cc3[C@@H]2N2C(=O)CN(Cc3ccc(Cl)cc3)C(=O)[C@@]12C,,inactive: 1.32%
Cc1cc(C)n(-c2nnc(C)c(=O)[nH]2)n1,active: 7.08 µM,
Cc1[nH]c2ccc(-c3n[nH]c(=S)n3Cc3ccccc3)cc2c1C,"inconclusive: 22.4 µM [inhibitor, full curve]",
Cc1ccc(NC(=O)c2ccc(CN3CC(=O)N4CCCCC4C3=O)cc2)c(Cl)c1 (centres undefined),,inactive: -8.09%
Cc1cc(C)n(-c2nnc3c4ccccc4n(C)c3n2)n1,active: 11.2 µM,
Cn1cccc1-c1cc(C(=O)N/N=C/c2ccc(F)cc2)[nH]n1,"inconclusive: 50.1 µM [inhibitor, partial curve]",

# Source: PubChem BioAssay AID504333 (National Center for Advancing Translational Sciences (NCATS), 2011)
